# Test results taken from article PMC4336329 (PLoS ONE, 2015).
# Out of some 310,000 compounds screened, about 14,000 (4.5%) showed an effect of 50% or more. Effects have a minus sign here. The list shows a part of the results.
# Target: human ether-à-go-go-related gene (hERG) potassium channel (human, UniProt Q12809)
# Experiment: primary screen, population patch clamp on CHO cells stably expressing hERG
# 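Further: peak tail current of the secondary pulse compared with the same well before compound.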
# human ether-à-go-go-related gene (hERG) potassium channel, sequence (Q12809 whole entry, looked up): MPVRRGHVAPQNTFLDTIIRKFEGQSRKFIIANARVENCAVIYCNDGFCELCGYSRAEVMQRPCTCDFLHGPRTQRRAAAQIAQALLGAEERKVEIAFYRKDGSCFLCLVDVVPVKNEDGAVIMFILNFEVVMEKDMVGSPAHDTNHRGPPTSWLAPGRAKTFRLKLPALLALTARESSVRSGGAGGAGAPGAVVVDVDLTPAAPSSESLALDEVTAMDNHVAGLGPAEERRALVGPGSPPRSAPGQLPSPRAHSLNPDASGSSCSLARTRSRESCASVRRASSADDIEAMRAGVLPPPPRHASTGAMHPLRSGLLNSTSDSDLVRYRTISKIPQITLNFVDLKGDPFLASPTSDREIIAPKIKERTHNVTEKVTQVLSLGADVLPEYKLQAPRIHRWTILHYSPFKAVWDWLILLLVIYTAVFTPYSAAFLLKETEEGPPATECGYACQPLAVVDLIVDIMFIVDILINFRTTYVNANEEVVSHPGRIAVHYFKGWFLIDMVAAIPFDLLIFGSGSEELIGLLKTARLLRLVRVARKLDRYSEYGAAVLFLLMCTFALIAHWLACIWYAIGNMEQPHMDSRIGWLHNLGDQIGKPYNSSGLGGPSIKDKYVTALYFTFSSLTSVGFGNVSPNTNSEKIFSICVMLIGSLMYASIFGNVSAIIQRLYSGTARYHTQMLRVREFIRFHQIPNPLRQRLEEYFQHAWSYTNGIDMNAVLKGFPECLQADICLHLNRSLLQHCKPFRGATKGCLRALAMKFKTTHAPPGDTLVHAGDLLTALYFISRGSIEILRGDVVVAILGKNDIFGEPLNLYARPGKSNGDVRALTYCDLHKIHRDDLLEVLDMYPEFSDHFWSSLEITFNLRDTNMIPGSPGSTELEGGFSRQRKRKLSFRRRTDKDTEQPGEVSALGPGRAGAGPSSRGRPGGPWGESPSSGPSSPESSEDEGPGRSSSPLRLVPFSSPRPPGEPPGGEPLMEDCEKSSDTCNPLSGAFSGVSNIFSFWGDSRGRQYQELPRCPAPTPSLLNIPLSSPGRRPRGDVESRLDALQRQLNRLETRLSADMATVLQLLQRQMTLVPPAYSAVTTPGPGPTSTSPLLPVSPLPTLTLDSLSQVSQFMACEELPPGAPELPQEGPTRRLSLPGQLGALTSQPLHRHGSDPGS
row,Structure (SMILES),"hERG current change (%, negative = inhibition) at 10uM"
1,COc1cc2c(cc1OC)/C(=C/C(=O)c1ccc(NC(C)=O)cc1)NCC2,14.3%
2,Cc1c(NC(=O)CSc2nncn2-c2ccccc2)c(=O)n(-c2ccccc2)n1C,26.6%
3,COc1cc(C(c2c(O)cc(C)[nH]c2=O)c2c(O)cc(C)[nH]c2=O)ccc1O,-2.99%
4,COC(=O)CNC(=O)CN1C(=O)NC2(CCCc3ccccc32)C1=O (stereo not drawn),11.3%
5,O=C(O)c1ccc(N/N=C/c2ccc3c(c2)OCO3)cc1,17.8%
6,CCOC(=O)c1sc2nc(NC(=O)C3CCCCC3)sc2c1C,7.61%
7,Cc1ccc(S(=O)(=O)NCCC(=O)NCc2ccc(Cl)cc2)cc1C,11.4%
8,CCn1c(SCC(=O)NC2CCCCC2)nc2c(c1=O)SC(C)C2 (stereo not drawn),-2.82%
9,CC1(C)CC(=O)C2=C(C1)Nc1ccccc1NC2c1cc(Cl)ccc1O (stereo not drawn),7.11%
10,COC(=O)CSc1nc2ccccc2n1CC(=O)N(C(C)C)C(C)C,-40.1%
11,Nc1nnnn1/N=C/c1cc([N+](=O)[O-])ccc1O,17.9%
12,CCOc1ccc(S(=O)(=O)N2CCOCC2)cc1NC(=O)CSCC(=O)Nc1cccc(C)c1,-11.4%
13,CCCC(=O)Nc1ccc(C(=O)NCC2CCCO2)cc1 (stereo not drawn),-15.7%
14,COc1ccc(NC(=O)c2nn(C)cc2[N+](=O)[O-])cc1,17.5%
15,COc1ccc(C2CCCN2C(=S)Nc2ccc(C)cc2Cl)cc1OC (stereo not drawn),-13.6%
16,Nc1c(Cl)ncnc1NCCO,21.3%
17,CCc1ccc(NC(=O)c2ccc(F)c(S(=O)(=O)N(CC)c3ccccc3)c2)cc1,30.6%
18,CC(=O)Nc1ccc(S(=O)(=O)Nc2cccc(-n3c(C)nc4ccccc4c3=O)c2)cc1,3.07%
19,CSc1ccccc1OCc1cc(C(=O)N2CCCC2c2nonc2C)no1 (stereo not drawn),3.82%
20,COc1cccc(N2C(=O)[C@H]3C(C(=O)c4cnccn4)=NN[C@H]3C2=O)c1,13.2%
21,COc1ccc(C2=NOC(C(=O)Nc3cccnc3)C2)cc1OC (stereo not drawn),1.17%
22,Cc1ccsc1C(=O)OCC(=O)NC1CCCC1,13%
23,CN1CC(=O)N(CC(=O)Nc2ccc(Br)cc2F)C1=O,7.47%

row,Structure (SMILES),"hERG current change (%, negative = inhibition) at 10uM"
1,CCOC(=O)c1c(C)[nH]c(C)c1S(=O)(=O)NCC1CCN(Cc2ccc(C)cc2)CC1,-60.2%
2,O=C(c1ccc2c(c1)OCO2)N1CCN(S(=O)(=O)c2ccccc2)CC1,-20.5%
3,Cc1cc(S(=O)(=O)N2CCCCC2)c(C)s1,8.25%
4,COc1ccccc1CNC(=O)c1cc(C(C)=O)c[nH]1,25.9%
5,Cc1[nH]c2ccccc2c1/C=N/NC(=O)c1cccc(Br)c1,0.234%
6,COc1cc(OC)cc(C(=O)NNC(=O)c2ccccc2Br)c1,0.539%
7,Cc1ccc2c(c1)cc(C(=O)NCc1ccccc1)n2C,15.5%
8,CCCCn1c(N)c(N(C)C(=O)c2ccc(Br)o2)c(=O)[nH]c1=O,0.124%
9,Cc1cc(=O)[nH]c(=S)n1-c1ccccc1,11.8%
10,CC(C)(CN1CCCC1)NC(=O)C1CCC(=O)N(CCCN2CCOCC2)C1 (stereo not drawn),1.89%
11,Cc1ccc(-c2nnc(SCC(=O)N3CCCC3)o2)cc1C,-0.309%
12,CN(C)CCNC(=O)Cc1ncc(C(F)(F)F)cc1Cl,16.5%
13,Cc1ccc(C(c2nnnn2CCc2ccccc2)N2CCSCC2)cc1 (stereo not drawn),-13.5%
14,CC(C)OCCCNc1nc2c(c(=O)n(Cc3ccccc3F)c(=O)n2C)n1C,-28.5%
15,O=C(CN1CCN(CC(=O)Nc2ccccc2C(F)(F)F)CC1)Nc1ccccc1F,-30.2%
16,Nc1[nH]nc2nc(N3CCOCC3)nc(-c3ccccc3)c12,-22.7%
17,CCOC(=O)N1CCN(C(=O)c2cn(C)c3ccc(S(=O)(=O)N4CCOCC4)cc3c2=O)CC1,20%
18,COc1ccc(N2C(=O)CC(N3CCN(c4ccc(C(=O)c5cccnc5)cc4)CC3)C2=O)cc1 (stereo not drawn),-48.2%
19,CCOC(=O)/C(=N\NC(=O)c1ccccc1)c1ccccc1,-13.4%
20,NC(=O)CC(NC(=S)NCc1ccccc1)C(=O)O (stereo not drawn),6.67%
21,Cc1cc(C)cc(NC(=O)CCc2c(C)nn(-c3ccc(N4CCCCC4)nn3)c2C)c1,-5.82%
22,CCn1cc(CCC(=O)NCCc2ccccc2)c2ccccc21,11.5%
